# Among all 50,000 compounds or so, about 800 (1.6%) showed an effect of 50% or more. Some of the results follow.
# Target: Bcl-2-like protein 10 (Homo sapiens) (UniProt Q9HD36)
# Assay: TR3 peptide-Bcl-B binding displacers, biochemical primary FP assay, phenotype converters (AID 1240);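 also: 0% = Bcl-B with tracer peptide and DMSO and 100% = tracer peptide lacking Bcl-B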
# Conditions: GST-Bcl-B / FITC-TR3 peptide fluorescence polarization; stronger effect = higher value; compound at 3.75 mg/L
# Sequence of UniProt Q9HD36 (Q9HD36 whole entry, looked up): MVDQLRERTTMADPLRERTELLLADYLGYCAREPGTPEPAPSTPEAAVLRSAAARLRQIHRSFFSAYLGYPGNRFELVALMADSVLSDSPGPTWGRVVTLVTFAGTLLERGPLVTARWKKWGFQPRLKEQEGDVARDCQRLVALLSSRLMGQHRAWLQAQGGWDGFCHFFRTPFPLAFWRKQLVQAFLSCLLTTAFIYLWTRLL
row,Compound,displacement [%]
1,C(=N\Nc1nc(N2CCOCC2)nc(N2CCOCC2)n1)/c1ccccc1,5.4
2,Cc1cc(=O)n2[nH]c(-c3cccc(F)c3)cc2n1,13.6
3,C=CCOc1ccc(/C=C2\C(=O)NC(=O)N(c3ccc(Cl)cc3)C2=O)cc1OCC,-4
4,CN=C(NS(=O)(=O)c1ccccc1)c1ccccc1,11.1
5,COc1ccc(NC(=S)NC(=O)c2ccc(OC)cc2)cc1,13.3
6,CCCOC(=O)c1ccc(NC(=O)c2ccncc2)cc1,-2.7
7,CCC(Oc1ccccc1)C(=O)Nc1sc2c(c1C(=O)OC)CCC(C)C2 (configuration not stated),-6.5
8,Cc1ccc(C(=O)n2c(C)nc3ccccc32)cc1C,-8.5
9,CNC(=S)N(CCc1ccc(OC)c(OC)c1)C1CC(=O)N(c2ccccc2)C1=O (configuration not stated),-4.7
10,CC(=O)N/N=C/c1nc2ccccc2[nH]1,-11.6
11,CCCOC(=O)c1c(NC(=O)Cn2nc([N+](=O)[O-])cc2C)sc2c1CCCC2,-7.8
12,O=C1CC(NCc2ccc3c(c2)OCO3)C(=O)N1c1cccc(Br)c1 (configuration not stated),-7.1
13,CCN1C(=O)/C(=C\c2ccc(-c3ccc([N+](=O)[O-])cc3Br)o2)SC1=S,1.9
14,Cc1cccc(-n2c(SCc3ccccc3)nc3ccccc3c2=O)c1,-9.7
15,CC1CCCC(C)N1CC(O)COc1ccc(N=Cc2ccccc2O)cc1 (configuration not stated),-1.9
16,CC(=O)c1ccc(NC(=S)NC(NC(=O)CC(C)C)C(Cl)(Cl)Cl)cc1 (configuration not stated),-27.7
17,O=C(Cc1ccccc1)Nc1ccc(C(=O)OC2CCCCC2)cc1,-9.8
18,COc1cccc(-n2c(O)c(C=NCc3ccccc3F)c(=O)[nH]c2=O)c1,9.2
19,CCc1ccc(S(=O)(=O)Nc2cc3c(C(=O)O)c(C)oc3c3ccccc23)cc1,17.8
20,Cc1ccc(NC(=O)Cc2ccc(Br)cc2)cc1C,-6.9
21,COc1cc2c(cc1NC(=O)c1ccc(F)cc1)oc1ccccc12,-9.2
22,Fc1ccc(-c2noc(-c3ccc(F)cc3)n2)cc1,-12.2
23,Cc1ccc(C(C)C)c(OCC(=O)N2CCN(c3ccc([N+](=O)[O-])cc3)CC2)c1,7.9

row,Compound,displacement [%]
1,Cc1sc2nc(N)c(C#N)c(-c3ccccc3)c2c1C,3.9
2,CC(C)=C(NC(=O)c1ccccc1)C(=O)NCc1ccccc1Cl,-1.5
3,CCOc1ccccc1N1CCN(S(=O)(=O)c2ccc(OC)cc2)CC1,-12.8
4,COc1ccc(/C=C/C(=O)Nc2ccccc2OC)cc1Br,13.6
5,Cc1ccc(OCCSc2nnnn2-c2ccccc2)cc1,4.7
6,O=C(COc1ccc2ccccc2c1)Nc1ccc(-c2nc3cccnc3o2)cc1,0.7
7,COc1ccc(-c2csc3nc[nH]c(=O)c23)cc1,-2.4
8,CCCCCCCCc1nnc(NC(=O)C(C)(C)C)s1,-10.4
9,COc1cc(C=O)cc(Br)c1OCc1c(C)no[n+]1[O-],-5.9
10,COc1cccc(N2C(=O)NC(=O)/C(=C/c3c(OC)ccc4ccccc34)C2=O)c1,-10.7
11,CC1=C(C(=O)Nc2cccc(Cl)c2)C(c2ccc(F)cc2)NC(=O)N1 (configuration not stated),2.5
12,O=C1CSC(=S)N1/N=C/c1c(Cl)cccc1Cl,-18.9
13,COc1ccc2oc(=O)c(-c3csc(NC(=O)/C=C\C(=O)O)n3)cc2c1,-25.1
14,COc1cccc(N(CC(=O)Nc2cc(Cl)cc(Cl)c2)S(=O)(=O)c2ccccc2)c1,-5.1
15,CCOc1ccc(N(CC(=O)Nc2ccccc2C)S(C)(=O)=O)cc1,2.3
16,CSc1ccc(/C=N/NC(=O)/C(=C\c2ccc3c(c2)OCO3)NC(=O)c2ccccc2)cc1,-8.9
17,CN1CCN(CCOCCOc2cc(Cl)ccc2Cl)CC1,-13.1
18,O=C1C(=O)N(Cc2ccccc2)C(c2ccc(F)cc2)/C1=C(/O)c1ccccc1 (configuration not stated),3.9
19,O=[N+]([O-])c1cccc(S(=O)(=O)NCc2ccccc2)c1,-3.3
20,O=C(Nc1ccc(S(=O)(=O)Nc2nccs2)cc1)c1ccc(F)cc1,1.9
21,CSc1nnc2c(n1)OC(c1ccc(OCc3ccccc3)cc1)Nc1ccccc1-2 (configuration not stated),7.4
22,CCOC(=O)c1c(NC(=O)c2cnccn2)sc2c1CCCC2,4.2
23,COc1ccc(-c2cc(=O)n3[nH]c(-c4ccc(Br)cc4)cc3n2)cc1,2.2

row,Compound,displacement [%]
1,O=c1oc2ccccc2cc1-c1nn(-c2ccccc2)cc1/C=N/O,53
2,Cc1ccc(NC(=O)c2c(-c3ccccc3Cl)noc2C)nc1,4.6
3,NC(N)=N/N=C/c1ccccc1OS(=O)(=O)c1ccccc1,12.4
4,CCCCOC(=O)c1ccc(OC(=O)CCN2C(=O)c3ccccc3C2=O)cc1,-1.3
5,CN(C)/C=C1\N=C(c2ccc(Cl)cc2Cl)OC1=O,31.9
6,S=C(c1ccncc1)N1CCOCC1,8.2
7,Cc1sc(NC(=O)c2cc(-c3cccs3)nc3ccccc23)c(C(N)=O)c1C,-6.2
8,CCOC(=O)N/N=C/c1ccc(F)cc1,14.8
9,O=C1c2ccccc2C(=O)c2c1c(Cl)c(Cl)c(Cl)c2N1CCCC1,8
10,O=C(N/N=C/c1ccc(O)c(O)c1O)c1ccc(Cl)cc1Cl,-5.7
11,Cc1ccc(CC2C(=O)N(c3cc(C)ccc3C)C(=O)C2C)cc1 (configuration not stated),6.5
12,COc1ccc(CCNC(=O)C(=O)Nc2ccc(Cl)c(Cl)c2)cc1,-9
13,Oc1ccc(Br)cc1CN1CCN(Cc2ccco2)CC1,-8.4
14,O=C(NCCCN1CCOCC1)/C(=C/c1ccc(-c2cccc([N+](=O)[O-])c2)o1)NC(=O)c1ccccc1,10.8
15,Cc1ccc2oc(-c3ccco3)cc(=O)c2c1,7.3
16,COc1ccc(N=Nc2c(N)n[nH]c2N)cc1,6.5
17,COc1cc(/C=C2/NC(=S)NC2=O)ccc1OCc1ccccc1Cl,-17
18,C/C(=N\Nc1cc(-n2nc(C)cc2C)nc(C)n1)c1ccc(Cl)c(Cl)c1,-5.4
19,Cc1ccc(/C(O)=C2\C(=O)C(=O)N(CCCC(=O)O)C2c2ccccc2)cc1 (configuration not stated),0.5
20,COc1ccc(/C=C/C(=O)NCCc2nc3ccccc3[nH]2)cc1Br,-9.6
21,CC(C)(C)c1ccc(S(=O)(=O)Nc2ccccn2)cc1,4
22,Cc1sccc1/C=N/NC(=O)c1ccc(C(C)(C)C)cc1,-7.9
23,Oc1c(/C=N/Nc2cccc3cccnc23)sc2ccccc12,-31.2

row,Compound,displacement [%]
1,Cn1cc([N+](=O)[O-])cc1-c1nc2ccccc2n1C,10.9
2,COc1cc([N+](=O)[O-])cc(/C=C2/C(=O)NC(=O)N(c3ccccc3)C2=O)c1O,-14.2
3,CC(=O)Oc1ccc(C(=O)Nc2cccc(-c3nc4ccccc4o3)c2)cc1,0.4
4,Fc1cccc(Cl)c1C=NN1CCN(c2ccc(Cl)cc2)CC1,0.8
5,CCOC(=O)c1ccc(N2C(=O)C3C(c4ccccc4C)OC4(C(=O)c5ccccc5C4=O)C3C2=O)cc1 (configuration not stated),-7.9
6,NC(=O)C1CCN(C(=O)Nc2ccc(Cl)c(Cl)c2)CC1,-2
7,O=C(O)c1nn2c(C(F)(F)F)c3c(nc2c1Cl)-c1ccccc1CC3,1.1
8,C/C(=N/NC(=O)c1ccc(CO)nc1)c1ccc(Br)cc1,49.1
9,O=c1oc2cc([N+](=O)[O-])ccc2nc1/C=C(O)/C=C\c1ccccc1,-4.6
10,COc1ccc(C2C(C(C)=O)=C(O)C(=O)N2CCN(C)C)cc1 (configuration not stated),-5.1
11,Cc1c(C(=O)NCCC2=CCCCC2)cccc1[N+](=O)[O-],-2.8
12,CSc1ccc(Cl)c(C(=O)Nc2c(C)n(C)n(-c3ccccc3)c2=O)c1,-10
13,CC1=[N+](CCO)c2ccccc2C1(C)C,16.8
14,N#C/C(=C\c1ccc(OCc2ccccc2)cc1)c1nc(-c2ccc(Br)cc2)cs1,-4.6
15,O=C(N/N=C/c1cc([N+](=O)[O-])ccc1Cl)Nc1ccccc1,-9.2
16,O=c1/c(=C/c2ccc(Cl)cc2Cl)sc2nc(-c3ccccc3)nn12,-9.6
17,Cc1ccc(NC(=O)CN(c2ccc(C)c(Cl)c2)S(C)(=O)=O)c(C)c1,-5.6
18,Cc1ccccc1C(=O)Nc1nnc(-c2ccco2)s1,-1.6
19,O=C(CC1Sc2ccccc2NC1=O)Nc1ccc(I)cc1 (configuration not stated),-1.6
20,CCn1c2c(c3cc(F)ccc31)CCCC2=O,1.8
21,CCOC(=O)CCCSc1nnc(CCCN2C(=O)c3cccc4cccc(c34)C2=O)n1-c1ccccc1,0.5
22,Cc1ccc(/C=C/C(=O)N2CCN(c3ccc([N+](=O)[O-])cc3)CC2)o1,19.4
23,Cc1cccc(NC(=O)c2ccc([N+](=O)[O-])cc2)c1,17.9

row,Compound,displacement [%]
1,Oc1ccccc1/C=N/Nc1nc2ccccc2s1,0.6
2,CC(C)c1ccccc1NC(=O)Cc1ccc(Br)cc1,1.9
3,COC(=O)c1ccc(N=Cc2c(O)n(C)c(=O)[nH]c2=O)cc1,5.1
4,CN1CCN(C(=O)CCN2C(=O)c3cccc4cccc(c34)C2=O)CC1,18.2
5,NC1=NC(=O)/C(=C/c2ccc(OC(=O)c3ccccc3Br)cc2)S1,8.1
6,CC(=O)N1CCN(c2ccc(NC(=O)c3cccc(Cl)c3)cc2)CC1,16.4
7,O=C(Nc1cccc(NC(=S)NC(=O)c2ccco2)c1)c1cccc(Cl)c1,1.4
8,Cc1cc(Oc2ccc(F)c(F)c2)c(F)cc1[N+](=O)[O-],-1.7
9,COc1ccc(CC(=O)Nc2ccc(S(=O)(=O)Nc3nccs3)cc2)cc1,5.1
10,COc1ccc(Nc2ccc(OC)cc2)cc1,14.1
11,O=C(O)Cn1nnc(-c2ccccc2Cl)n1,6.6
12,Cc1[nH]nc(-c2ccccc2)c1Sc1ccc(Cl)cc1,-9.7
13,O=C(COc1cccc2ccccc12)NNC(=O)Cc1ccc(Cl)cc1,-12.3
14,CCN(CC)c1ccc(NC(=O)/C=C\c2ccccc2Cl)cc1,14.7
15,CCOC(=O)C(=CNc1ncccc1C)C(=O)OCC,-3.1
16,Clc1ccccc1-c1nc(N2CCOCC2)c2ccccc2n1,2.1
17,Cc1cc(C)n(-c2cc(C)c3cccc([N+](=O)[O-])c3n2)n1,3.3
18,O=C(COc1ccc([N+](=O)[O-])cc1)Nc1ccccn1,-10.4
19,C(=C\CSc1cccc2cccnc12)/CSc1cccc2cccnc12,-3.3
20,CCc1ccc(C(=O)/C=C/c2cccc([N+](=O)[O-])c2)cc1,1
